According to article PMC4336329 (PLoS ONE, 2015):
The campaign covered roughly 310,000 compounds. About 2,200 (0.71%) showed an effect of 50% or more. Effects have a minus sign here. The list shows a part of the results.

biological target: human ether-à-go-go-related gene (hERG) potassium channel (human, UniProt Q12809); test: primary screen, population patch clamp on CHO cells stably expressing hERG
Sequence (Q12809 whole entry, looked up): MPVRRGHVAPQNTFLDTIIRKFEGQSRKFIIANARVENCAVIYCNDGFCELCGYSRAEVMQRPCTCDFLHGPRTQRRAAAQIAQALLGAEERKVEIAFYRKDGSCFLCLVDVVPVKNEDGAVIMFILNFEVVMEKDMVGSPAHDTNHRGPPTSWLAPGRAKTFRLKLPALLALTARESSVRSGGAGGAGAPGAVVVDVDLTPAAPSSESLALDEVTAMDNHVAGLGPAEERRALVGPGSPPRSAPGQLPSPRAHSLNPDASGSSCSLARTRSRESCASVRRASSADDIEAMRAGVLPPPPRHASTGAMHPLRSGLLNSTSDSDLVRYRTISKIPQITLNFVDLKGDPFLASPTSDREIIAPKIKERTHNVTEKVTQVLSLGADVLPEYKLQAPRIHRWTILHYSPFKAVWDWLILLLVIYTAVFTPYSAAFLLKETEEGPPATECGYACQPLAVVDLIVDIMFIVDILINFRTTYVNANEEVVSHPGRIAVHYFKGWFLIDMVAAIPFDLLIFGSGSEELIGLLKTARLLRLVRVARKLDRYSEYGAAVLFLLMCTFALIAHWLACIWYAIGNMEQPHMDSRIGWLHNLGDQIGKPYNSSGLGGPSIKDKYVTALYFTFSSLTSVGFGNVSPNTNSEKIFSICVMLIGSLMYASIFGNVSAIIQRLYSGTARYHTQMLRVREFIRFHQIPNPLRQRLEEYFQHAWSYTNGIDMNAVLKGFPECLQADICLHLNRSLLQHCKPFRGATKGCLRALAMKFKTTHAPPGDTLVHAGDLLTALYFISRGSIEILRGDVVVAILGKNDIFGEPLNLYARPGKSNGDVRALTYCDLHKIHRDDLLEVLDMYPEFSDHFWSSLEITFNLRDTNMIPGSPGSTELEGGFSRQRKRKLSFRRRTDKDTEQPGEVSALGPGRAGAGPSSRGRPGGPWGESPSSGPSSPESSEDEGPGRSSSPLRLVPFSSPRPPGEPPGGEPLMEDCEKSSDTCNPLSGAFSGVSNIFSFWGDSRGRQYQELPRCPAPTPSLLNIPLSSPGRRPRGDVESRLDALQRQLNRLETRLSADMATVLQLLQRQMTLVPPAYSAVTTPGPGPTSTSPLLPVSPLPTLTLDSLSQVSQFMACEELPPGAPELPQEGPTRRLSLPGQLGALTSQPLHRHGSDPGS

Row | SMILES | hERG current change (%, negative = inhibition) at 1uM
1 | O=c1oc2ccccc2c(Nc2ccc(O)cc2)c1[N+](=O)[O-] | 4.44%
2 | CCOn1c(-n2nc(C)cc2C)nc2ccccc2c1=O | 11%
3 | O=C1C2CC=CCC2C(=O)N1Nc1ccccc1 (stereo not drawn) | 13.3%
4 | CCOc1ccccc1NC(=O)C1C2CCC(O2)C1C(=O)O (stereo not drawn) | 16.8%
5 | O=C(c1cc2ccccc2oc1=O)N1CCCCCCC1 | 13.7%
6 | CCn1cc(C(=O)NCc2ccco2)c(=O)c2cc(S(=O)(=O)N3CCc4ccccc4C3)ccc21 | -0.558%
7 | CCOc1ccc(NC(=O)CN(C)C(=O)Cc2ccsc2)cc1OCC | 1.2%
8 | Cc1cc(NC(=O)c2c(Br)c(C)nn2C)no1 | 8.15%
9 | CC(C)CNC(=O)C(=O)NCC(c1ccc2c(c1)OCO2)N1CCOCC1 (stereo not drawn) | 12.8%
10 | O=C(CNC(=S)NC(=O)c1cccc([N+](=O)[O-])c1)c1ccccc1 | 1.25%
11 | CCC(=O)Oc1ccc(NC(=O)c2ccco2)cc1 | 2.83%
12 | Cc1cc(C)n(C(=O)c2ccc(C)o2)n1 | -0.671%
13 | CCOP(=O)(OCC)C(NC(=O)c1ccc(OC)cc1)c1ccccc1 (stereo not drawn) | 11.3%
14 | COC(=O)Cn1c(-c2ccc(OC)cc2)c(-c2ccc(OC)cc2)nnc1=O | 5.49%
15 | S=c1[nH]nc(COc2ccc(Cl)cc2)n1Cc1ccccc1 | -1.58%
16 | COc1cccc(NC(=O)C(OC(=O)/C=C/c2ccc3c(c2)OCO3)c2ccccc2)c1 (stereo not drawn) | -4.59%
17 | CN(C)S(=O)(=O)c1cccc(NC(=O)c2cc(=O)[nH]c(=O)[nH]2)c1 | 16.6%
18 | CNCC(O)Cn1c2c(c3ccccc31)CCCC2 (stereo not drawn) | 5.22%
19 | O=S(=O)(c1cccs1)N1CN(Cc2ccco2)c2nc3ccccc3nc21 | 5.05%
20 | COC(=O)C(Oc1ccc2c(-c3ccc(OC)cc3)cc(=O)oc2c1)c1ccccc1 (stereo not drawn) | 0.842%
21 | Cc1ccc(NC(=O)C2C3CC4OC(=O)C2C4C3)cc1Cl (stereo not drawn) | 0.412%
22 | C/C(CC(=O)Nc1cccc(Cl)c1Cl)=N\NC(=O)c1ccccc1N | 14.1%

Row | SMILES | hERG current change (%, negative = inhibition) at 1uM
23 | O=C(O)c1cccc2c1C(=O)N(Cc1ccncc1)C2 | 15.7%
24 | Cc1ccc(NC(=O)C(C)Sc2n[nH]c(CNc3ccccc3)n2)cc1 (stereo not drawn) | 11.9%
25 | CCC(=O)NC(=S)Nc1ccc(NC(=O)CC)cc1 | 0.36%
26 | Cc1cc(C)nc(NC(=NCc2ccc3c(c2)OCO3)NC(=O)Nc2ccccc2)n1 | -4.02%
27 | Cn1c(SCC(=O)Nc2ccccc2Br)nnc1-c1cnccn1 | 12.9%
28 | Oc1ccc2n[nH]nc2c1 | 12.2%
29 | COc1cccc(N2CCN(S(=O)(=O)c3ccc4c(c3)CC(C)N4C(=O)C3CC3)CC2)c1 (stereo not drawn) | 14.3%
30 | Cn1c(NC(=O)c2ccccc2F)c(-c2cccs2)c(=O)c2ccccc21 | -9.32%
31 | Oc1c(I)cc(I)c2cccnc12 | 3.38%
32 | Cc1cccc(/N=C/c2c(O)cc(C)oc2=O)n1 | 8.84%
33 | Cc1cccc(N(CC(=O)NC(C)C)C(=O)CCC(=O)Nc2ccccn2)c1 | 7.08%
34 | CC(C)(C)NC(=O)C(Cc1ccccc1)NS(=O)(=O)c1cccc2nsnc12 (stereo not drawn) | 9.43%
35 | Cc1cc(N2CCN(C)CC2)nc2ccc(NC(=S)NCCN3CCc4ccccc4C3)cc12 | -4.66%
36 | CC1(C)Cc2c(sc3nc(SCC(=O)NCc4ccco4)n(-c4ccccc4)c(=O)c23)CS1 | 13.1%
37 | COc1ccc(S(=O)(=O)CC(=O)Nc2nnc(C(F)(F)F)s2)cc1 | 1.56%
38 | CNc1nc(SCc2ccccc2Cl)nc2c1CCCC2 | 7.73%
39 | O=C(COC(=O)c1cccnc1)Nc1cccc(Cl)c1 | 12.9%
40 | CCOC(=O)c1ccc(-c2ccc(/C=N/NC(=O)CN(c3ccccc3Br)S(C)(=O)=O)o2)cc1 | 9.67%
41 | Cc1cc(OC(=O)c2ccccc2Br)c([N+](=O)[O-])c(=O)[nH]1 | 8.61%
42 | CNS(=O)(=O)c1cnccc1N1CCN(C)CC1 | 9.03%
43 | Cc1cc(NC(=O)CSc2nc(Cc3ccccc3)c(C)[nH]2)no1 | 10.8%
44 | Cc1ccc(C(=O)Cc2nc3ccccc3[nH]2)cc1 | 11.8%

Row | SMILES | hERG current change (%, negative = inhibition) at 1uM
45 | CSc1ccc(C2C(C#N)=C(N)Oc3c2ccc(=O)c2c(C)oc(C)c32)cc1 (stereo not drawn) | 18.2%
46 | Cc1ccc(NC(=O)C2Cc3ccccc3O/C2=N\O)cc1C (stereo not drawn) | 14%
47 | Cc1ccsc1C(=O)N1CCN(c2ncc(C(F)(F)F)cc2Cl)CC1 | 13.6%
48 | Cc1ccc(OCCn2c(=O)oc3ccc(C)cc32)cc1 | 13%
49 | Cc1cc(NC(=O)c2ccoc2C)ccc1Br | 6.09%
50 | O=C(CCC1CCCN(C(=O)C2=CCCC2)C1)N1CCN(c2ccccn2)CC1 (stereo not drawn) | 10.9%
51 | O=C(COC(=O)Cc1ccc(F)cc1)Nc1ccc(Cl)cn1 | 11.1%
52 | C[C@H](NC(=O)c1nc[nH]c1C(=O)NC1CCN(C(=O)OC(C)(C)C)CC1)C(=O)OC(C)(C)C | -0.429%
53 | C[C@H](OC(=O)N1CCN(C(c2ccccc2)c2ccccc2)CC1)[C@@H]1O[C@@]2(C)CCC[C@H]1O2 | 14.3%
54 | COc1ccc(N2C(=O)c3ccccc3NC2c2ccc(OC)c(COc3ccccn3)c2)cc1 (stereo not drawn) | 7.47%
55 | Cc1cc(O)c2c(C)c(CC(=O)N3CCN(C(=O)C4COc5ccccc5O4)CC3)c(=O)oc2c1 (stereo not drawn) | 12.1%
56 | Cc1nn(C)cc1CNC(=O)c1cc2n(n1)C(C(F)(F)F)CC(c1cccs1)N2 (stereo not drawn) | 2.41%
57 | CN(C)c1cccc(C(=O)OC(C(=O)Nc2ccc([N+](=O)[O-])cc2Br)c2ccccc2)c1 (stereo not drawn) | 5%
58 | CC(NC(=O)/C=C/c1ccco1)c1nc2ccccc2n1Cc1ccccc1F (stereo not drawn) | 12.7%
59 | Cc1cc(C)cc(N(CC(=O)Nc2c(C)n(C)n(-c3ccccc3)c2=O)S(C)(=O)=O)c1 | 13.7%
60 | CC1CN(S(=O)(=O)c2ccc(C(=O)Nc3ccc(S(=O)(=O)Nc4ncccn4)cc3)cc2)CC(C)O1 (stereo not drawn) | 12.9%
61 | COC(=O)c1ccc(/C=N/OCC(=O)NC2CCCCCCC2)cc1 | 7.42%
62 | CCOC(=O)c1c(C)c(C#N)c2c3ccccc3ccn12 | 11.2%
63 | CN(Cc1ccc(Cl)cc1)C(=O)c1cc(S(=O)(=O)N2CCOCC2)ccc1N1CCCC1 | -28.7%
64 | CCOC(=O)[C@@H]1[C@H]2COc3ccccc3[C@@H]2N2C(=O)N(c3ccccc3)C(=O)[C@@]12C | 13%
65 | CC(=O)Oc1ccccc1C(=O)OCCN=C1NS(=O)(=O)c2ccccc21 | 18.1%
66 | COc1ccccc1NC(=O)CN(C)S(=O)(=O)c1ccc(F)cc1 | 7.7%

Row | SMILES | hERG current change (%, negative = inhibition) at 1uM
67 | O=C(Cc1ccc([N+](=O)[O-])cc1)NC1CCCCCC1 | 15.2%
68 | CN1C2CCC1CC(NC(=O)c1cccc(C(F)(F)F)c1)C2 (stereo not drawn) | 10.5%
69 | O=C(c1ccc(Cl)cc1Cl)N1CCC(c2nc3c(nnn3Cc3ccco3)c(=O)[nH]2)CC1 | -11.2%
70 | O=S(=O)(c1ccccc1F)N1CCN(C(=S)NCc2ccccc2)CC1 | 14.3%
71 | Cc1cc(C)nc(N/N=C/c2cc3c(cc2[N+](=O)[O-])OCO3)n1 | 11.2%
72 | CC(C)N(C(=O)CSc1nc2ccccc2c(=O)[nH]1)C(C)C | 9.74%
73 | COc1ccc(/C(N)=N/OC(=O)c2ccc3c(c2)OCO3)cc1 | 14.1%
74 | CCc1cccc(NC(=O)C2CCCC2)c1 | 20.7%
75 | O=C(Cn1cnc2c(nnn2-c2ccccc2)c1=O)N1CCC(Cc2ccccc2)CC1 | -0.531%
76 | NC(=O)C1CCN(CC(O)CSc2ccccc2)CC1 (stereo not drawn) | 4.32%
77 | COC(=O)C1=C(c2ccc(C(C)=O)cc2)C[C@@H]2CC[C@H]1N2C(=O)NCc1ccc2c(c1)OCO2 | 4.09%
78 | CCCn1c(N)c(N2CCCCC2)c(=O)n(CC(=O)Nc2ccccc2C)c1=O | 16%
79 | Cn1c(SCC(=O)Nc2ccc3c(c2)OCCO3)nnc1C1CC1 | 7.4%
80 | O=C(CN1CCN(CC(=O)c2ccc(F)cc2)CC1)Nc1ccccc1Cl | -48.2%
81 | Cc1ccc(CNC(=O)C2CCC(CNc3c(N4CCC(C)CC4)c(=O)c3=O)CC2)cc1 (stereo not drawn) | 8.21%
82 | CN1C(C(=O)NCc2cccc(C(F)(F)F)c2)CC2Cn3c(nc4ccccc43)C21 (stereo not drawn) | -6.41%
83 | O=C(COc1ccccc1)N/N=C/c1cc2c(cc1[N+](=O)[O-])OCO2 | -1.02%
84 | O=C(NNC(=O)c1cc(Br)c(Br)s1)c1csc(N2CCOCC2)n1 | 8.08%
85 | COc1ccc(N2CCN(CCNC(=O)c3ccc4c(c3)[nH]c(=S)n3c5ccccc5nc43)CC2)cc1 | 5.57%
86 | CCN(CC)C(=O)COc1ccc(N(C)S(=O)(=O)c2ccc(NC(C)=O)cc2)cc1 | -1.39%
87 | CSc1nc(N2CCOCC2)nc2ccc(C)cc12 | 9.17%
